Whole data set: some 33,000 sequences, median “E-score (dimensionless, -0.5 to 0.5)” near -0.058, cut for the highest 2% near 0.35. The list shows a part of the results.
Each sequence was assayed on MvaT (assay: PBM 8-mer E-score (mean of HK and ME arrays) (E-score (dimensionless, -0.5 to 0.5)); higher = stronger relative binding preference; most listed sequences are background and not binding sites).
In short: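 Full-length P. aeruginosa MvaT carrying an N-terminal glutathione S-transferase tag was tested by protein binding microarray following a previously described protocol. Two universal double-stranded 60-mer arrays, ME and HK, were used, each with a constant 25-mer primer region and a variable 35-mer region covering all 8-mers. The rank-based E-score is the mean of the two arrays, parsed with a custom script. Its range runs from -0.5 to 0.5 for each 8-mer.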
In the case of AACTTTTA, the “PBM 8-mer E-score” value is reported as 0.34. For ATGAGTAC, the “PBM 8-mer E-score” value was 0.21. With CCTAGGTC the “PBM 8-mer E-score” value was -0.272. GGCCTACC was tested, and the “PBM 8-mer E-score” value was -0.323. In the case of TAACTGGA, the “PBM 8-mer E-score” value is reported as 0.225. GCCGTGCA was tested, and the “PBM 8-mer E-score” value was -0.0899. CTGACAAG was tested, and the “PBM 8-mer E-score” value was -0.192. In the case of GGAACCCC, the “PBM 8-mer E-score” value is reported as -0.336. In the case of CTGTCAAG, the “PBM 8-mer E-score” value is reported as -0.125. With GCTTTACC the “PBM 8-mer E-score” value was -0.0879. In the case of CCTCAAAA, the “PBM 8-mer E-score” value is reported as -0.00376. AGGCCAGG was tested, and the “PBM 8-mer E-score” value was -0.23. With AAGACGCC the “PBM 8-mer E-score” value was -0.227. In the case of CTAATATA, the “PBM 8-mer E-score” value is reported as 0.434. In the case of ATCAAAAG, the “PBM 8-mer E-score” value is reported as 0.0981. With ATCCCAAA the “PBM 8-mer E-score” value was 0.0803. In the case of TCAATCGA, the “PBM 8-mer E-score” value is reported as -0.0479. AGACGCCT was tested, and the “PBM 8-mer E-score” value was -0.288. With GATTACCA the “PBM 8-mer E-score” value was 0.0745. For CATTAGGG, the “PBM 8-mer E-score” value was -0.306. For AAAGTAGT, the “PBM 8-mer E-score” value was 0.235. For ACGTAGTG, the “PBM 8-mer E-score” value was -0.146. With CAGAGTGG the “PBM 8-mer E-score” value was -0.169. AGAAACAG was tested, and the “PBM 8-mer E-score” value was 0.0342. GCGTCAGA was tested, and the “PBM 8-mer E-score” value was -0.131. With GCCGATTA the “PBM 8-mer E-score” value was 0.00795. For AACTACTA, the “PBM 8-mer E-score” value was 0.239. ACATCACA was tested, and the “PBM 8-mer E-score” value was -0.00205. For CCTACTAC, the “PBM 8-mer E-score” value was -0.0926. For CCAGGCCC, the “PBM 8-mer E-score” value was -0.315. In the case of ATTGCCCC, the “PBM 8-mer E-score” value is reported as -0.0605. CCGCCTGA was tested, and the “PBM 8-mer E-score” value was -0.259. In the case of ATGAGCAT, the “PBM 8-mer E-score” value is reported as -0.143. For AATAAGCC, the “PBM 8-mer E-score” value was 0.183. In the case of ACTGGTCT, the “PBM 8-mer E-score” value is reported as -0.0903. In the case of CGCAGTTA, the “PBM 8-mer E-score” value is reported as 0.179. For ATGAGAAA, the “PBM 8-mer E-score” value was 0.0934. TAAGACGA was tested, and the “PBM 8-mer E-score” value was -0.0159. For AGCGATGA, the “PBM 8-mer E-score” value was 0.00185. For CAGGTTTA, the “PBM 8-mer E-score” value was 0.0374. With CCGCTGAC the “PBM 8-mer E-score” value was -0.192. In the case of AGTGAAAA, the “PBM 8-mer E-score” value is reported as 0.0323. ACCTAGGT was tested, and the “PBM 8-mer E-score” value was -0.068. CCCGCACG was tested, and the “PBM 8-mer E-score” value was -0.204. With ACTAGACT the “PBM 8-mer E-score” value was -0.0171. AGTGTCAA was tested, and the “PBM 8-mer E-score” value was 0.0442. With CAGATATC the “PBM 8-mer E-score” value was 0.0971. For ACGGTGCC, the “PBM 8-mer E-score” value was -0.234. In the case of ACAAAGTC, the “PBM 8-mer E-score” value is reported as -0.00742. In the case of CGGGACCG, the “PBM 8-mer E-score” value is reported as -0.191. In the case of GAATCACC, the “PBM 8-mer E-score” value is reported as -0.137. With GTATCGCA the “PBM 8-mer E-score” value was 0.0328. For CATGCTAA, the “PBM 8-mer E-score” value was -0.00363. With GACGCTCC the “PBM 8-mer E-score” value was -0.272. ACCCTTTC was tested, and the “PBM 8-mer E-score” value was -0.289. ACAGACGC was tested, and the “PBM 8-mer E-score” value was -0.0838. For GAACGTGA, the “PBM 8-mer E-score” value was 0.0425. In the case of GCCTCGTA, the “PBM 8-mer E-score” value is reported as -0.109. CACCTGCA was tested, and the “PBM 8-mer E-score” value was -0.17. In the case of GTAGCCGA, the “PBM 8-mer E-score” value is reported as -0.0246. For CACGTCTC, the “PBM 8-mer E-score” value was -0.173. ATAAACCG was tested, and the “PBM 8-mer E-score” value was 0.145. With CTAATGCA the “PBM 8-mer E-score” value was -0.0396. In the case of CGTCGGAG, the “PBM 8-mer E-score” value is reported as -0.239. For GGGCGCCC, the “PBM 8-mer E-score” value was -0.231. In the case of ACACACGG, the “PBM 8-mer E-score” value is reported as -0.207. For GCCTGAAA, the “PBM 8-mer E-score” value was -0.145. With GCGCACCC the “PBM 8-mer E-score” value was -0.268. With ATGCTGAG the “PBM 8-mer E-score” value was -0.216. In the case of CAACGCAG, the “PBM 8-mer E-score” value is reported as -0.078. With GAATAACC the “PBM 8-mer E-score” value was 0.197. With AACCGACC the “PBM 8-mer E-score” value was -0.0337. With CAATAGGC the “PBM 8-mer E-score” value was -0.161. In the case of CAATGAGG, the “PBM 8-mer E-score” value is reported as -0.12. AGTGCTAT was tested, and the “PBM 8-mer E-score” value was 0.172. With GAAAGATC the “PBM 8-mer E-score” value was -0.12. GGGGGGAA was tested, and the “PBM 8-mer E-score” value was -0.179. In the case of CTGTATGC, the “PBM 8-mer E-score” value is reported as -0.0229. GAGGGGCA was tested, and the “PBM 8-mer E-score” value was -0.237. GAGTAACC was tested, and the “PBM 8-mer E-score” value was -0.00206. With GGAAGGTA the “PBM 8-mer E-score” value was -0.0496. CCGAAAGG was tested, and the “PBM 8-mer E-score” value was -0.3. In the case of CACGACGG, the “PBM 8-mer E-score” value is reported as -0.274. With CGATAGCC the “PBM 8-mer E-score” value was -0.14. With AGGTGAAT the “PBM 8-mer E-score” value was 0.0769. With ACATCCAG the “PBM 8-mer E-score” value was 0.0662.

— the supplement of paper PMC4466236
